# Source: the supplement of paper PMC9446081
# Screen size: about 39,000 compounds; about 220 (0.56%) showed activity. The list shows a part of the results.
# System: Escherichia coli K-12 BW25113
# Experiment: relative growth (OD600 normalised to plate interquartile mean) (fraction); higher = less growth inhibition, active = 0.2 or less
# Settings: 50 µM; LB; incubation time: overnight (16-24 h)
# 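Also: static incubation at 37 °C against the wild-type strain, values averaged over two biological replicates.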
row,SMILES,relative growth
1,C=CCN1C(C)=N[C@H]2C=C[C@H](NCCCO)[C@H]21,inactive: 0.999
2,COc1ccc(S(=O)(=O)Nc2cccc3c2O[C@H](CN(C)C(=O)Nc2c(C)noc2C)[C@@H](C)CN([C@H](C)CO)C3=O)cc1,inactive: 1.03
3,O=c1[nH]cn[nH]1,inactive: 0.986
4,COc1cc(/C=C/c2cc(/C=C/c3ccc(O)c(OC)c3)n(CCc3ccccc3)c(=S)n2)ccc1O,inactive: 1.08
5,COc1nc(=NC(=O)NS(=O)(=O)Nc2cccc3cccnc23)nc(OC)[nH]1,inactive: 0.863
6,C=CCOC(=O)[C@@H]1[C@H]2C(=O)O[C@H](c3ccccc3)[C@H](c3ccccc3)N2[C@H](c2ccccc2OCCO)[C@@]12C(=O)Nc1ccc(I)cc12,inactive: 0.995
7,C[C@@H]1CN([C@H](C)CO)C(=O)c2cc(NC(=O)Cn3cnnn3)ccc2O[C@@H]1CN(C)C(=O)Nc1ccccc1,inactive: 0.987
8,COc1ccc(CN(C)C[C@H]2Oc3ccc(NS(=O)(=O)c4c(C)noc4C)cc3CC(=O)N([C@H](C)CO)C[C@H]2C)cc1,inactive: 1.01
9,COc1ccc2c3c(n(c2c1)C)[C@H](CO)N(C[C@]13CCN(CC1)Cc1cccc(c1)F)C(=O)Nc1ccc(cc1)F,inactive: 1.01
10,C[C@@H]1CCCCO[C@@H](CN(C)C(=O)Nc2cccc3ccccc23)[C@@H](C)CN([C@H](C)CO)C(=O)c2cc(NC(=O)Nc3ccc(F)cc3)ccc2O1,inactive: 0.992
11,C[C@@H]1CN([C@@H](C)CO)C(=O)c2cccc(NC(=O)Nc3ccc(C(F)(F)F)cc3)c2O[C@H]1CN(C)Cc1ccc(Oc2ccccc2)cc1,inactive: 0.954
12,CCOC(=O)COc1ccc2c(=O)cc(-c3ccccc3)oc2c1,inactive: 1.02
13,Cn1c(=O)c2c(ncn2C[C@@H](O)COc2ccccc2)n(C)c1=O,inactive: 0.901
14,CN(C)CC#Cc1ccc([C@H]2[C@H]3CN(C(=O)CN(C)C)CCCCN3[C@H]2CO)cc1,inactive: 1.01
15,C[C@H]1CN([C@@H](C)CO)C(=O)Cc2cc(NC(=O)CCN3CCOCC3)ccc2O[C@@H]1CN(C)S(=O)(=O)c1cn(C)cn1,inactive: 1.03
16,C[C@H](CO)N1C[C@H](C)[C@H](CN(C)S(=O)(=O)c2cccs2)Oc2c(NC(=O)C3CCOCC3)cccc2C1=O,inactive: 1.03
17,C[C@H]1CN([C@@H](C)CO)C(=O)Cc2cc(NC(=O)Cc3ccccc3)ccc2O[C@H]1CN(C)Cc1ccc(Oc2ccccc2)cc1,inactive: 1
18,C[C@@H]1CN([C@H](C)CO)C(=O)c2cc(NS(=O)(=O)c3cn(C)cn3)ccc2O[C@H]1CN(C)Cc1ccc2c(c1)OCO2,inactive: 0.847
19,C[C@@H]1CN([C@H](C)CO)S(=O)(=O)c2ccc(C#CCN(C)C)cc2O[C@@H]1CN(C)C(=O)c1ccccc1F,inactive: 0.993
20,C[C@H](CO)N1C[C@H](C)[C@@H](CN(C)S(=O)(=O)c2ccc(Cl)cc2)OCCCC[C@H](C)Oc2ccc(NC(=O)c3ccccc3)cc2C1=O,inactive: 1.02

row,SMILES,relative growth
1,C[C@@H]1CCCCO[C@@H](CN(C)Cc2ccc3c(c2)OCO3)[C@H](C)CN([C@H](C)CO)C(=O)c2cc(NS(=O)(=O)c3cccs3)ccc2O1,inactive: 1.03
2,COCC#Cc1ccc2c(c1)O[C@H](CN(C)S(=O)(=O)c1ccc(OC)cc1)[C@H](C)CN([C@@H](C)CO)S2(=O)=O,inactive: 0.988
3,COc1ccc(S(=O)(=O)Nc2ccc3c(c2)CC(=O)N([C@@H](C)CO)C[C@H](C)[C@H](CN(C)Cc2ccncc2)O3)cc1,inactive: 0.987
4,C[C@@H]1CCCCO[C@@H](CN(C)S(=O)(=O)c2cn(C)cn2)[C@H](C)CN([C@H](C)CO)C(=O)c2cc(NS(=O)(=O)c3ccccc3)ccc2O1,inactive: 0.929
5,CCOC(=O)C1=C(COCCN)NC(C)=C(C(=O)OC)C1c1ccccc1Cl.O=S(=O)(O)c1ccccc1 (centres undefined),inactive: 0.929
6,C[C@@H]1CN([C@@H](C)CO)C(=O)c2cc(NC(=O)Nc3ccc(C(F)(F)F)cc3)ccc2O[C@@H](C)CCCCO[C@H]1CN(C)Cc1ccc(Cl)c(Cl)c1,inactive: 1.03
7,O=C(OC(C(F)(F)F)C(F)(F)F)N1CCN(Cc2ccc(C(F)(F)F)cc2N2CCCC2)CC1,inactive: 0.994
8,COc1ccc(NC(=O)Nc2ccc3c(c2)C(=O)N([C@H](C)CO)C[C@H](C)[C@H](CN(C)CC2CCCCC2)O3)cc1,inactive: 0.998
9,COc1ccc(S(=O)(=O)Nc2ccc3c(c2)C(=O)N([C@@H](C)CO)C[C@@H](C)[C@@H](CN(C)CC2CCCCC2)OCCCC[C@@H](C)O3)cc1,inactive: 0.971
10,C[C@@H]1CCCCO[C@@H](CN(C)S(=O)(=O)c2ccc(F)cc2)[C@H](C)CN([C@H](C)CO)C(=O)c2cc(NC(=O)Cc3ccccc3)ccc2O1,inactive: 1.01
11,Cc1noc(C)c1NC(=O)Nc1ccc2c(c1)C(=O)N([C@@H](C)CO)C[C@@H](C)[C@H](CN(C)S(=O)(=O)c1ccccc1)OCCCC[C@@H](C)O2,inactive: 0.983
12,CC12CCC3c4ccc(O)cc4CCC3C1CC(O)C2O (centres undefined),inactive: 1.1
13,C[C@H](CO)N1C[C@H](C)[C@H](CN(C)C(=O)c2ccccn2)Oc2cc(C#Cc3ccccc3)ccc2S1(=O)=O,inactive: 0.999
14,C[C@@H]1CN([C@@H](C)CO)C(=O)c2cc(NC(=O)C3CCCCC3)ccc2O[C@@H](C)CCCCO[C@H]1CN(C)Cc1ccc(C(=O)O)cc1,inactive: 0.977
15,C[C@@H]1CN([C@H](C)CO)S(=O)(=O)c2ccc(C#CC3(O)CCCC3)cc2O[C@@H]1CN(C)C(=O)c1ccccc1,inactive: 0.993
16,N=C(N)NCCNS(=O)(=O)c1cccc2cnccc12,inactive: 0.956
17,O=C1CC[C@@H](C(=O)N2CSC[C@H]2C(=O)O)N1,inactive: 0.982
18,O=C(C1=C[C@@H](c2ccsc2)C[C@@H](OCCCCO)O1)N1CCN(Cc2ccc3c(c2)OCO3)CC1,inactive: 0.985
19,C[C@@H]1CN([C@@H](C)CO)C(=O)c2cc(NS(=O)(=O)c3ccc(Cl)cc3)ccc2O[C@@H]1CN(C)Cc1ccc(Oc2ccccc2)cc1,inactive: 1
20,C[C@@H]1CN([C@H](C)CO)C(=O)Cc2cc(NC(=O)Cn3cnnn3)ccc2O[C@H]1CN(C)S(=O)(=O)c1ccccc1,inactive: 1.03

row,SMILES,relative growth
1,CCC(=O)N(C)C[C@H]1Oc2ncc(C#C[C@H](C)O)cc2C(=O)N([C@@H](C)CO)C[C@@H]1C,inactive: 1
2,C[C@H]1CCCCO[C@@H](CN(C)C(=O)Nc2ccc3c(c2)OCO3)[C@@H](C)CN([C@@H](C)CO)C(=O)c2cc(NC(=O)Nc3ccc(F)cc3)ccc2O1,inactive: 1.05
3,C[C@H]1CN([C@@H](C)CO)C(=O)c2cccc(NC(=O)c3ccncc3)c2O[C@H]1CN(C)Cc1ccc(-c2ccccc2)cc1,inactive: 0.991
4,CNC(=O)C[C@@H]1CC[C@H]2[C@@H](COC[C@@H](O)CN2C(=O)c2ccccn2)O1,inactive: 0.989
5,O=C(C[C@@H]1C[C@@H]2c3cc(NS(=O)(=O)c4ccc(F)cc4)ccc3O[C@@H]2[C@@H](CO)O1)NCc1cccnc1,inactive: 0.997
6,CC(C)NC(=O)N(C)C[C@H]1OCCCC[C@H](C)Oc2ccc(NS(C)(=O)=O)cc2C(=O)N([C@@H](C)CO)C[C@@H]1C,inactive: 1
7,C[C@@H]1CN([C@H](C)CO)C(=O)c2cc(NC(=O)CCN3CCOCC3)ccc2O[C@H]1CN(C)Cc1ccccc1,inactive: 1.03
8,CC(C)CC#Cc1ccc2c(c1)O[C@H](CN(C)C(=O)Cc1cccnc1)[C@@H](C)CN([C@H](C)CO)S2(=O)=O,inactive: 1.01
9,C[C@@H]1CN([C@@H](C)CO)C(=O)c2cccc(NC(=O)C3CCOCC3)c2O[C@@H]1CN(C)Cc1ccc(C(=O)O)cc1,inactive: 1
10,COc1ccc(S(=O)(=O)Nc2ccc3c(c2)C(=O)N([C@@H](C)CO)C[C@H](C)[C@@H](CN(C)C(=O)Nc2c(C)noc2C)O3)cc1,inactive: 0.996
11,CC(C)C[C@H](NC(=O)N1CCCCCC1)C(=O)N[C@H](Cc1cn(C)c2ccccc12)C(=O)N[C@H](Cc1ccccn1)C(=O)O,inactive: 1
12,C[C@H](CO)N1C[C@H](C)[C@@H](CN(C)Cc2ccc(Cl)c(Cl)c2)Oc2ccc(NC(=O)C3CCCCC3)cc2C1=O,inactive: 0.896
13,C=CCOC(=O)[C@H]1[C@@H]2C(=O)O[C@@H](c3ccccc3)[C@@H](c3ccccc3)N2[C@@H](c2ccc(OCCOC(=O)[C@H]3C[C@H]4C(=O)N[C@@H](CCCCNC(C)=O)C(=O)N4[C@H]3c3ccc(O)cc3)cc2)[C@]12C(=O)Nc1ccccc12,inactive: 1.05
14,O=C(C[C@@H]1C=C[C@H](NC(=O)Nc2cc(F)ccc2F)[C@H](CO)O1)NCCCN1CCOCC1,inactive: 0.926
15,Cc1n[nH]c(=O)nc1NCCN(C)C,inactive: 0.986
16,COc1ccc(CN(C)C[C@@H]2OCCCC[C@H](C)Oc3ccc(NC(=O)c4ccccc4)cc3C(=O)N([C@H](C)CO)C[C@H]2C)cc1,inactive: 0.999
17,COCCNC(=O)C[C@@H]1C[C@@H]2c3cc(NC(=O)CN(C)C)ccc3O[C@@H]2[C@@H](CO)O1,inactive: 0.999
18,O=C(O)C[C@@H]1C(=O)O[C@H]2[C@@H](OC(=O)c3cc(O)c(O)c(O)c3)[C@H](OC(=O)c3cc(O)c(O)c4c3[C@H]1[C@H](O)C(=O)O4)[C@H](OC(=O)c1cc(O)c(O)c(O)c1)O[C@@H]2COC(=O)c1cc(O)c(O)c(O)c1,inactive: 0.566
19,COCC(=O)N1[C@@H]2c3cccc(=O)n3C[C@@H]2[C@@H](CO)[C@@H]1C(=O)NCc1ccccc1,inactive: 1
